From publication PMC7693358 come the findings set out here.

Protein sequences, listed by entry. Tags and fused reporters are not part of them.
UniProt Q93VD3: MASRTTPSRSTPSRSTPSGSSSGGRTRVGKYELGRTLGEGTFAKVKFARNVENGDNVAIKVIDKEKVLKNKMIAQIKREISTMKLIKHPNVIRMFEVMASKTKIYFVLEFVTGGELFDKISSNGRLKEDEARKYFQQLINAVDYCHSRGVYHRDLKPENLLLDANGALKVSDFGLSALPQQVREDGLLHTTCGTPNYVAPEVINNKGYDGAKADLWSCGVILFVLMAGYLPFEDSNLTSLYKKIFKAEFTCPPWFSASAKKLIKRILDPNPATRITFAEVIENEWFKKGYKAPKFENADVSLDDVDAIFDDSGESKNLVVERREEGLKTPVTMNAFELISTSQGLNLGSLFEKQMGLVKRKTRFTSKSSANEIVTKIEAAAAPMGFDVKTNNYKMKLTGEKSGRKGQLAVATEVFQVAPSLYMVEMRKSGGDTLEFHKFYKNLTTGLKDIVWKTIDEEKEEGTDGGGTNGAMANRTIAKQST
UniProt O48963: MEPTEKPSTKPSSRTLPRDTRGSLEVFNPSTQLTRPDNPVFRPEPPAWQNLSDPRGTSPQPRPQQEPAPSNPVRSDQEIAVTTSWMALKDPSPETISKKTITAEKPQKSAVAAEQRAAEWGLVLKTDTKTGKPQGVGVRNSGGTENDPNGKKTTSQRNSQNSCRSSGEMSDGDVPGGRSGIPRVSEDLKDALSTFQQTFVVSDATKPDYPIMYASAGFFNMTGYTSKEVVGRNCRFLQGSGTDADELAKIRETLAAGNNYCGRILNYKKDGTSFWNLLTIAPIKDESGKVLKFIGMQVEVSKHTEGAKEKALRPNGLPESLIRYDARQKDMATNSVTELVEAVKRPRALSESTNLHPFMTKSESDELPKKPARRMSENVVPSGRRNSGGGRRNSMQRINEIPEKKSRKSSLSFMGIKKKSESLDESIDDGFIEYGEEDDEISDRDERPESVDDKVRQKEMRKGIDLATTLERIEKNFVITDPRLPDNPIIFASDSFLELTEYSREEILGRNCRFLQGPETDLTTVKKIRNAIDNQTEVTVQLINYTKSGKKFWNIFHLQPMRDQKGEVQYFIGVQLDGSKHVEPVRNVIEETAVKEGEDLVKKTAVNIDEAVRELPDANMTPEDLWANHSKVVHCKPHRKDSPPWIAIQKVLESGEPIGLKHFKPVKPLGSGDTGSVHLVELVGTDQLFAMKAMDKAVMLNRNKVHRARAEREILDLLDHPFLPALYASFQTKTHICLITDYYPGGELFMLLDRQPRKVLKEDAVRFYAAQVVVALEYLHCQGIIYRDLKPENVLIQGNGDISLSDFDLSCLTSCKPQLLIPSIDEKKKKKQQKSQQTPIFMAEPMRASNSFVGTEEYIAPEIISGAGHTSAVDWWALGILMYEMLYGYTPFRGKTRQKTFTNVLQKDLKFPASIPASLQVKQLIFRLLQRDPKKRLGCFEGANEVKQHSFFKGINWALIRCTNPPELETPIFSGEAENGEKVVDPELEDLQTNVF
UniProt P93025: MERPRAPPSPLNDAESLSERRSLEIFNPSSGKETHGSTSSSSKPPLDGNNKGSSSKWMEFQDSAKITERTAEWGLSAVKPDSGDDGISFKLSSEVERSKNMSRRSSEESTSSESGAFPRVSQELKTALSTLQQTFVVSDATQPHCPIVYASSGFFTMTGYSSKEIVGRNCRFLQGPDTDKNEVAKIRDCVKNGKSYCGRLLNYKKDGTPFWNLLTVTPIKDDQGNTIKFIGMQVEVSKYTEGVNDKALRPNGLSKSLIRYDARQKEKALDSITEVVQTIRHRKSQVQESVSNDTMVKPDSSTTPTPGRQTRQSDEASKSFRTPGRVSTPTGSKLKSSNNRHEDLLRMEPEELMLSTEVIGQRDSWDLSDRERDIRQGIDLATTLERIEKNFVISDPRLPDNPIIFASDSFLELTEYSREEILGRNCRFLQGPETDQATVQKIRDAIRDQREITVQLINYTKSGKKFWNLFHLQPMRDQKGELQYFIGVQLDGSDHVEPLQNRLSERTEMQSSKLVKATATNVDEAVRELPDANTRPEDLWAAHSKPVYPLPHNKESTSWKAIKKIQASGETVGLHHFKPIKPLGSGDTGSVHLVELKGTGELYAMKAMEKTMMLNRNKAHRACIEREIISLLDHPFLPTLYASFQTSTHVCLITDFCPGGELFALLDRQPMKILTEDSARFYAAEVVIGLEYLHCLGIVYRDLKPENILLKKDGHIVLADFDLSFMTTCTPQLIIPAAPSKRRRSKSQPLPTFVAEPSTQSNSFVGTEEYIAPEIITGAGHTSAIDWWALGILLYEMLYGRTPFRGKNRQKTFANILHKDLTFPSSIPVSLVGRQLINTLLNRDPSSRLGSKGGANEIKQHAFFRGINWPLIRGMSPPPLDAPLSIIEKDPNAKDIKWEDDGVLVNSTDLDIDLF
UniProt Q8RWC9: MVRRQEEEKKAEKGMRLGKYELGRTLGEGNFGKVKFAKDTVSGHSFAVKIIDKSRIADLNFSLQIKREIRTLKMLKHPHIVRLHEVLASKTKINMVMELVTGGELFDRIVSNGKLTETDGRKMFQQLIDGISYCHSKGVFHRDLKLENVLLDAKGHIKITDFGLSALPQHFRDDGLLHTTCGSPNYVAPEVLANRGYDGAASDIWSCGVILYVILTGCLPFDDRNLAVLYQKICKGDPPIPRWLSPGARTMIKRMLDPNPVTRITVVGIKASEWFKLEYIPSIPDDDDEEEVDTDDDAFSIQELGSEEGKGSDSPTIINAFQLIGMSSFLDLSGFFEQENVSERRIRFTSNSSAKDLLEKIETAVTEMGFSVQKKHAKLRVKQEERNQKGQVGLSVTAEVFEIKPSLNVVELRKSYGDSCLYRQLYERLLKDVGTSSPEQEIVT
UniProt Q9LDI3: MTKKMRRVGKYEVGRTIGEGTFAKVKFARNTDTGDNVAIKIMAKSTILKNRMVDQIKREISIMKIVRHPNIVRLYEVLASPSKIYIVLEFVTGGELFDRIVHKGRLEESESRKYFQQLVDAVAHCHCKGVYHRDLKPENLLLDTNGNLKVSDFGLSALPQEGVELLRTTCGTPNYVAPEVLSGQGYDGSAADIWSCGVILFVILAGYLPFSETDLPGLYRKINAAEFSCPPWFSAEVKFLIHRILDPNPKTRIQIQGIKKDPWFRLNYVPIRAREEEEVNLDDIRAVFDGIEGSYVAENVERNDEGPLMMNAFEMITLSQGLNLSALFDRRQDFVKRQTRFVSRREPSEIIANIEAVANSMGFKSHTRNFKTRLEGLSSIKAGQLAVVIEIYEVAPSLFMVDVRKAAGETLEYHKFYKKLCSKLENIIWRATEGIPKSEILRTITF

Assay [1] concerns the target CIPK23 fused to the N- or C-terminal half of YFP (BiFC) (Arabidopsis thaliana) (UniProt Q93VD3). In words: split reporter; BiFC: nYFP and cYFP fusions (pSPYNE-35S, pSPYCE-35S) co-expressed via Agrobacterium in Nicotiana benthamiana leaf epidermal cells; confocal microscopy 2.5 days after infiltration.
The target in assay [2] is phot1 fused to the N- or C-terminal half of YFP (BiFC) (Arabidopsis thaliana) (UniProt O48963). The description is as above.
Assay [3] concerns the target phot2 fused to the N- or C-terminal half of YFP (BiFC) (Arabidopsis thaliana) (UniProt P93025). The description is as above.
The target in assay [4] is FLAG-tagged phototropin 1 (FLAG-phot1) (Arabidopsis thaliana) (UniProt O48963). In words: AlphaScreen or HTRF; FLAG-phot1 or FLAG-phot2 (bait) on anti-IgG acceptor beads through anti-FLAG antibody, biotinylated protein (prey) on streptavidin-coated donor beads; 5 µl of each wheat germ synthesis mixture in 20 µl of 50 mM Tris-HCl pH 7.6, 100 mM potassium acetate, 10 mM MgCl2, 0.1 mM DTT, 1 mg/ml BSA; 23°C, 1 h. For orientation: In Alpha technology, singlet oxygen from a donor bead excites a nearby acceptor bead.

For assay [5], the target named is FLAG-tagged phototropin 2 (FLAG-phot2) (Arabidopsis thaliana) (UniProt P93025). Described as above.
Assay [6] addresses FLAG-CIPK1 (recombinant, E. coli) (Arabidopsis thaliana) (UniProt Q8RWC9). In words: pull-down; FLAG-CIPK proteins purified from E. coli on anti-FLAG agarose beads, incubated with microsomal proteins (100 µg) from Arabidopsis seedlings for 2 h at 4°C; immunoblot with anti-phot1, anti-phot2 and anti-FLAG; only the target purified.
Assay [7] concerns the target FLAG-CIPK23 (recombinant, E. coli) (Arabidopsis thaliana) (UniProt Q93VD3). The description is as above.
The target of assay [8] is FLAG-CIPK24 (recombinant, E. coli) (Arabidopsis thaliana) (UniProt Q9LDI3). Described as above.

Results are given in words; binding and its absence hold for the method and conditions named. For part of these data: In cells and extracts the contact can be indirect. Some results given as binding are weak or reduced against the parent protein; the word gives no strength.

In the case of “CIPK23 fused to the N- or C-terminal half of YFP (BiFC) (from UniProt Q93VD3 1-482)”, the binding result in assay [1], in assay [2] and in assay [3] was “binds” throughout.
For the molecule “CBL-interacting protein kinase 23 (CIPK23), biotin-labelled, from the Arabidopsis protein kinase library (from UniProt Q93VD3 1-482)”, the binding entry in assay [4] and in assay [5] was “binds” in each case.
For the molecule “phototropin 2 (phot2), endogenous in Arabidopsis microsomal membranes (from UniProt P93025 1-915)”, the binding result in assay [6] is reported as “no binding”; in assay [7], “binds”; in assay [8], “no binding”.

B1: NON-PHOTOTROPIC HYPOCOTYL 3 (NPH3) (protein, UniProt Q9FMF5 1-746)
chain: MMWESESDGGVGVGGGGGREYGDGVLSSNKHGGVKTDGFELRGQSWFVATDIPSDLLVKIGDMNFHLHKYPLLSRSGKMNRLIYESRDPDPTILILDDLPGGPEAFELASKFCYGVPVDLTATNISGLRCAAEYLEMTEDLEEGNLIFKTEAFLSYVVLSSWRDSILVLKSCEKLSPWAENLQIVRRCSESIAWKACSNPKGIRWAYTGKAPSPSTTNFAGSSPRWNESKDSSFYCSPSRNTNSQPVPPDWWFEDVSILRIDHFVRVITAIKVKGMRFELLGAVIMHYAGKWLPGLIKEGGVAIAPAMSSAIGGGLGLGGDEMSISCGSNSSGGSSGPDWKGGLHMVLSAGKTNGHQDSVACLAGLGISPKDQRMIVESLISIIPPQKDSVTCSFLLRLLRAANMLKVAPALITELEKRVGMQFEQATLQDLLIPGYNNKGETMYDVDLVQRLLEHFLVQEQTEGSSPSRMSPSPSQSMYADIPRGNNNNGGGGGGNNQNAKMRVARLVDSYLTEVARDRNLPLTKFQVLAEALPESARTCDDGLYRAIDSYLKAHPTLSEHERKRLCRVMDCQKLSMDACMHAAQNERLPLRVVVQVLFSEQVKISNALANTSLKESTTLGEAMGTYQPMIPNRKTLIEATPQSFQEGWAAAKKDINTLKFELETVKTKYVELQNEMEVMQRQFEKTGKVKNTPSSSAWTSGWKKLSKLTKMSGQESHDISSGGEQAGVDHPPPRKPRRWRNSIS
B1: the binding result in assay [4] was “binds”.
